# From the supplement of paper PMC9446081
# Among all 39,000 compounds or so, about 220 (0.56%) showed activity. The list shows a part of the results.
# System: Escherichia coli K-12 BW25113
# Assay: relative growth (OD600 normalised to plate interquartile mean) (fraction); higher = less growth inhibition, active = 0.2 or less
# Settings: 50 µM; LB; incubation time: overnight (16-24 h)
# 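Further: static incubation at 37 °C against the wild-type strain, values averaged over two biological replicates.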
row,SMILES,relative growth
1,C[C@@H]1CCCCO[C@@H](CN(C)CC2CCCCC2)[C@@H](C)CN([C@H](C)CO)C(=O)c2cc(NC(=O)Nc3cccc4ccccc34)ccc2O1,inactive: 1.03
2,Cc1ccc(S(=O)(=O)N(C)C[C@H]2Oc3c(NS(=O)(=O)c4cn(C)cn4)cccc3C(=O)N([C@@H](C)CO)C[C@@H]2C)cc1,inactive: 0.959
3,COc1ccc(S(=O)(=O)N(C)C[C@H]2Oc3c(NC(=O)c4ccncc4)cccc3C(=O)N([C@@H](C)CO)C[C@H]2C)cc1,inactive: 0.969
4,C[C@H](CO)N1C[C@H](C)[C@H](CN(C)S(=O)(=O)c2ccccc2)OCCCC[C@H](C)Oc2ccc(NC(=O)Nc3ccc(F)cc3)cc2C1=O,inactive: 0.999
5,C[C@@H]1CCCCO[C@H](CN(C)Cc2ccccc2)[C@H](C)CN([C@H](C)CO)C(=O)c2cc(NC(=O)Nc3ccc(C(F)(F)F)cc3)ccc2O1,inactive: 1.02
6,C[C@@H]1CN([C@H](C)CO)C(=O)CCCn2nncc2CO[C@H]1CN(C)C(=O)C1CC1,inactive: 0.997
7,Cc1ccc(S(=O)(=O)N(C)C[C@H]2Oc3ccc(NC(=O)Nc4cccc5ccccc45)cc3CC(=O)N([C@H](C)CO)C[C@H]2C)cc1,inactive: 1.04
8,C[C@@H]1CN([C@@H](C)CO)S(=O)(=O)c2ccc(-c3ccc(C(=O)N(C)C)cc3)cc2O[C@@H]1CN(C)C(=O)Cc1ccccn1,inactive: 1.03
9,C[C@@H]1CCCCO[C@H](CN(C)C(=O)C2CCCCC2)[C@H](C)CN([C@H](C)CO)C(=O)c2cc(NC(=O)Nc3cccc4ccccc34)ccc2O1,inactive: 1.03
10,CO[C@@H]1CN(C)C(=O)c2ccc(NC(=O)c3ccc(F)cc3)cc2OC[C@@H](C)N(C(=O)CN(C)C)C[C@@H]1C,inactive: 0.996
11,Cc1ccccc1S(=O)(=O)N1C[C@H](O)COC[C@H]2O[C@@H](CC(=O)NCCc3ccncc3)CC[C@@H]21,inactive: 1.01
12,C[C@@H]1CCCCO[C@@H](CN(C)Cc2ccc(Cl)c(Cl)c2)[C@@H](C)CN([C@@H](C)CO)C(=O)c2cc(NC(=O)C3CCCCC3)ccc2O1,inactive: 0.988
13,COCC#Cc1cnc2c(c1)C(=O)N([C@H](C)CO)C[C@H](C)[C@H](CN(C)C(=O)Nc1ccccc1OC)O2,inactive: 1.04
14,CCCN(C)C[C@H]1OCCCC[C@H](C)Oc2ccc(NC(=O)Cc3ccccc3)cc2C(=O)N([C@@H](C)CO)C[C@H]1C,inactive: 1.02
15,C[C@H]1CCCCO[C@@H](CN(C)C(=O)NC2CCCCC2)[C@@H](C)CN([C@@H](C)CO)C(=O)c2cc(NC(=O)C3CCCCC3)ccc2O1,inactive: 0.942
